Laboratory results: PubChem BioAssay AID624296 (National Center for Advancing Translational Sciences (NCATS), 2012)
Among all 350,000 compounds or so, about 9,900 (2.8%) were called active. Inconclusive means that the source gave no clear call. Such entries were picked first, then a sample of the others. Calls follow the shape of the dose curve; as a rule, active = well fitted activation curve with a large enough effect; inconclusive = small, poorly fitted or top-dose-only effect; inactive = no such curve, though single readings can be large or run the other way. Potencies of inconclusive entries are left out as doubtful fits.

assay: A quantitative high throughput screen for small molecules that induce DNA re-replication in MCF 10a normal breast cells.; also: nearly all actives have a fitted effect of over 50% in size; as to activity, positive = re-replication: % of control where 0% means no effect; settings: MCF 10A DNA re-replication, Hoechst nuclear intensity, 48 h; activity, positive = re-replication: at 46.1 µM (top of the series)
Potency is read from the fitted curve at half-maximal effect; tags tell the direction and shape of the fitted curve.

Row | Compound | activity, positive = re-replication | Potency
1 | COc1ccc(CNC(=O)CSc2nnc3c(n2)[nH]c2ccc(F)cc23)cc1 | inactive: 9.55% | 
2 | CCOC(=O)[C@@H]1[C@H]2COc3ccccc3[C@H]2N2C(=O)N(c3ccc(C(F)(F)F)cc3)C(=O)[C@]12C | inactive: -2.68% | 
3 | CCc1noc(C)c1C(=O)N1CCN(S(=O)(=O)c2ccc(Cl)s2)CC1 |  | inconclusive [activator, single point]
4 | COc1ccc(OC)c(-c2nnc(SCC(=O)N3CCCc4ccccc43)o2)c1 |  | inconclusive [activator, partial curve, poor fit]
5 | Nc1nnc(CC(=O)N/N=C/c2ccc(-c3ccccc3Cl)o2)s1 | inactive: 0.121% | 
6 | CCOc1ccc(NC(=O)CSc2ccc(-c3ccccn3)nn2)cc1 | inactive: -3.89% | 
7 | CCn1c(SCC(=O)Nc2oc(C)c3c(C)n[nH]c(=O)c23)nc2sc(C)c(C)c2c1=O | inactive: -1.81% | 
8 | COc1cccc(C(=O)Nc2cccc(-c3nnc(-c4ccco4)o3)c2)c1 |  | inconclusive [activator, single point]
9 | CN(C)CCSc1nnc2[nH]c3ccccc3c2n1 |  | inconclusive [activator, partial curve, poor fit]
10 | COc1cc(/C=C/c2ccc3cccc(O)c3n2)cc(OC)c1OC |  | inconclusive [activator, single point]
11 | CCCC[n+]1ccn(-c2nc3ccccc3nc2[N-]S(=O)(=O)c2ccccc2)c1 |  | inconclusive [activator, single point]
12 | CCCCNC(=O)CSc1nc2ccc(NC(=O)CSc3nnc(N)s3)cc2s1 |  | inconclusive [activator, partial curve, poor fit]
13 | S=c1[nH]nc(-c2ccco2)n1/N=C/c1ccccc1 | inactive: -5.89% | 
14 | Cc1cccc(N2CCN(C(=O)c3ccc(Cl)c(S(=O)(=O)NCc4ccco4)c3)CC2)c1C |  | active: 16.4 µM
15 | COc1cc(C(=O)N(Cc2ccc(N(C)C)cc2)C2CCS(=O)(=O)C2)cc(OC)c1OC (stereo not given) |  | inconclusive [activator, single point]
16 | COc1cc2c(cc1OC)C(c1cc3ccccc3oc1=O)=NC(C)(C)C2 |  | inconclusive [activator, single point]
17 | Clc1cccc(CNc2nc(-c3cccnc3)nc3ccccc23)c1 |  | inconclusive [activator, single point]
18 | O=C(N/N=C/c1ccc2c(c1)OCO2)c1ccc(COc2cccc3cccnc23)cc1 |  | inconclusive [activator, full curve, poor fit]
19 | N#Cc1nc(-c2cccc(Cl)c2)oc1NCc1cccnc1 |  | inconclusive [activator, partial curve]
20 | COc1cc(SC#N)ccc1N=Cc1c(C)[nH]n(-c2ccc(C)c(C)c2)c1=O |  | inconclusive [activator, partial curve, poor fit]
21 | O=C(CSc1ccc2nnc(-c3cccs3)n2n1)N1CCOCC1 |  | inconclusive [activator, partial curve, poor fit]
22 | COc1ccc(-c2cc(C(F)(F)F)nc(N3CCCCC3)n2)cc1OC |  | inconclusive [activator, partial curve, poor fit]

Row | Compound | activity, positive = re-replication | Potency
23 | Cc1cc(Cl)c(OCCCn2ccnc2)c(Br)c1 | inactive: 12.3% | 
24 | CCOC(=O)C(C(=O)OCC)C1OC(=O)c2cc3c(cc21)C(=O)OC3C(C(=O)OCC)C(=O)OCC (stereo not given) |  | inconclusive [activator, single point]
25 | CC(C)C[C@@H](CNCC(=O)[C@H](C)NC(=O)c1[nH]cnc1C(=O)N[C@@H](C)CN)NC(=O)c1nc[nH]c1C(=O)N[C@@H](CC(=O)O)C(=O)O | inactive: -1.65% | 
26 | Cn1c(=O)[nH]c2c(c1=O)CCO2 | inactive: -6.67% | 
27 | CCN(CC)S(=O)(=O)c1ccc(N=Nc2c(C)[nH]n(C(N)=S)c2=O)cc1 |  | inconclusive [activator, partial curve, poor fit]
28 | CCOc1ccc(NC(=O)c2cc(SC)ccc2Cl)cc1 |  | inconclusive [activator, single point]
29 | CCN(C(=O)COC(=O)c1cccs1)c1c(N)n(Cc2ccccc2)c(=O)[nH]c1=O | inactive: 2.14% | 
30 | CC1CN(C(=O)CCC(=O)N2CCN(c3cccc(C(F)(F)F)c3)CC2)c2ccccc2O1 (stereo not given) |  | inconclusive [activator, partial curve, poor fit]
31 | OCC[C@@H]1C[C@@H](O)[C@H](O)[C@]2(Cc3ccccc3CCO2)O1 |  | inconclusive [activator, single point]
32 | CCCCSc1n[nH]c(=S)c2nc[nH]c12 |  | inconclusive [activator, single point]
33 | COCCCNc1ncnc2ccc(C)cc12 |  | inconclusive [activator, partial curve, poor fit]
34 | Cc1cc(=O)oc2c(CN3CCCC3)c(O)c(Cl)cc12 |  | inconclusive [activator, single point]
35 | CCNC(=O)C12CCC(C)(C(=O)O1)C2(C)C (stereo not given) |  | inconclusive [activator, partial curve, poor fit]
36 | Cc1ccc(S(=O)(=O)Nc2nc3ccccc3nc2Nc2cccc(S(=O)(=O)N3CCCC3)c2)cc1 |  | active: 20.6 µM
37 | Cc1cccc(NC2=NC3(CCCCC3)N=C(N)N2)c1C | inactive: 3.24% | 
38 | Cc1c(C(=O)OC(C)C)sc(NC(=O)C2CCCO2)c1C(=O)OC(C)C (stereo not given) |  | active: 13 µM
39 | CCN(CC)CCOC(=O)c1ccc(NC(=O)/C=C/c2cccs2)cc1 |  | inconclusive [activator, partial curve, poor fit]
40 | COc1cc(C(C)=O)ccc1OCC(=O)Nc1cc(C)on1 | inactive: 4.3% | 
41 | COc1ccc(-n2c(C)c(C)c3c(N)ncnc32)cc1 |  | inconclusive [activator, partial curve, poor fit]
42 | COC(=O)[C@H](C)NC(=O)Nc1ccc(S(N)(=O)=O)cc1 |  | inconclusive [activator, single point]
43 | Cc1ccc(-n2ccc(=O)c(C(=O)Nc3ccc(S(=O)(=O)N4CCOCC4)cc3)n2)cc1 | inactive: 0.127% | 
44 | Cc1cccc(/C=N/NC(=O)Cn2nc(C)cc2C)n1 |  | inconclusive [activator, partial curve, poor fit]

Row | Compound | activity, positive = re-replication | Potency
45 | O=C(CCNc1cc(Cl)cc(Cl)c1)c1cccs1 |  | active: 23.1 µM
46 | CC1(C)CC[C@]2(C(=O)O)CC[C@]3(C)C(=CC[C@@H]4[C@@]5(C)CC[C@H](O[C@@H]6O[C@H](C(=O)O)[C@@H](O)[C@H](O[C@@H]7OC[C@H](O)[C@H](O)[C@H]7O)[C@H]6O)C(C)(C)[C@@H]5CC[C@]43C)[C@@H]2C1 |  | inconclusive [activator, full curve, poor fit]
47 | CCc1cc2c(=O)nc3n(c2s1)Cc1ccccc1/C3=C(/O)c1cccc([N+](=O)[O-])c1 |  | inconclusive [activator, single point]
48 | O=C(CCCN1C(=O)/C(=C/c2cccc(Br)c2)SC1=S)Nc1ccccn1 |  | inconclusive [activator, single point]
49 | COc1cccc(-c2csc3ncnc(Sc4nnnn4C)c23)c1 |  | inconclusive [activator, single point]
50 | Nc1nc(Nc2ccccc2)nc(NCCO)c1[N+](=O)[O-] |  | inconclusive [activator, partial curve, poor fit]
51 | CCc1ccccc1Nc1nn2c(=O)c3ccc(C(=O)NCc4ccccn4)cc3nc2s1 |  | inconclusive [activator, full curve]
52 | CSc1cccc(NC(=S)NC(=O)CCc2ccccc2)c1 |  | active: 16.4 µM
53 | CNC(=O)CN1C(=O)COc2ccc(S(=O)(=O)N3CCCCCC3)cc21 | inactive: 12.8% | 
54 | CCOC(=O)Nc1ccc(S(=O)(=O)N2CCOCC2)cc1 | inactive: 5.32% | 
55 | CCOC(=O)c1nn(-c2ccc(Cl)cc2C)ccc1=O | inactive: 3.2% | 
56 | O=C(N/N=C/c1cc(Br)cc(Cl)c1O)c1ccc2c(c1)OCO2 |  | inconclusive [activator, partial curve, poor fit]
57 | Cc1cccc(/C=C/C(=O)c2ccc(NC3=NCCCS3)cc2)c1 |  | inconclusive [activator, partial curve, poor fit]
58 | Cc1ccc(NC2=C(Cl)C(=O)OC2OC(=O)c2ccc(C)cc2)cc1 (stereo not given) |  | inconclusive [activator, single point]
59 | O=[N+]([O-])c1cc(Cl)cc(/C=N/NC(=S)Nc2cc(S(=O)(=O)N3CCOCC3)ccc2Cl)c1O |  | inconclusive [activator, partial curve, poor fit]
60 | CCc1c(C)sc(NC(=S)N2CCN(CC)CC2)c1C(=O)OC | inactive: 6.45% | 
61 | COc1cc(C(=O)OCC(C)=O)cc(NC(=O)c2ccco2)c1OC |  | inconclusive [activator, partial curve, poor fit]
62 | O=C1C(O)=CC(=C(c2ccccc2)c2ccccc2)c2ccccc21 |  | inconclusive [activator, partial curve, poor fit]
63 | COc1ccc(OC)c(S(=O)(=O)Nc2ccc(O)c3ccccc23)c1 |  | inconclusive [activator, single point]
64 | Cc1ccnc(NS(=O)(=O)c2ccc(NC(=O)c3ccc(S(=O)(=O)N4CCCC4)cc3)cc2)n1 |  | inconclusive [activator, full curve]
65 | COc1ccccc1NC(=O)c1cc2ccc(O)cc2o/c1=N\O |  | inconclusive [activator, partial curve, poor fit]
